{
  "source": "the supplement of paper PMC3334620",
  "note": "In all, about 33,000 sequences were measured (“E-score (-0.5 to 0.5)”: median about -0.036, highest 2% from about 0.37 on). This is one part of the list.",
  "data": [
    {"target": "T1, Yer064c (UniProt P40041)", "T1 sequence": "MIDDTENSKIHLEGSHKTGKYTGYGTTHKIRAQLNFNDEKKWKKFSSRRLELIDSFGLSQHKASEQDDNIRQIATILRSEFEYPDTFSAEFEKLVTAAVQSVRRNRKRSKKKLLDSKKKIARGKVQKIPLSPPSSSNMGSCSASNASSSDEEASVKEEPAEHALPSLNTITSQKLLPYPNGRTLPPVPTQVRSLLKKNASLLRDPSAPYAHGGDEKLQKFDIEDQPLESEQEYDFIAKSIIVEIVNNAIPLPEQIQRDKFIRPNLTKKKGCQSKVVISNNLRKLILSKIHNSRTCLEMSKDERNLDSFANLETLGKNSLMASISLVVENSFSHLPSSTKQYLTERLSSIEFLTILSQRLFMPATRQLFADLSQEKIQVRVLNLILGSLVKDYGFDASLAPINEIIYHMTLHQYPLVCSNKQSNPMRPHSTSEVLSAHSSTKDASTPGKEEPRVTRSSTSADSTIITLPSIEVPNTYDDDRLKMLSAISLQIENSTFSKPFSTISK", "assay": "PBM E-score (8-mer binding enrichment) (E-score (-0.5 to 0.5)); higher = stronger / more preferred TF binding; most listed sequences are background and not binding sites", "conditions": "protein concentration: 200 nM; construct: GST-full length", "outline": "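Masliner-normalised scans of fluorescent anti-GST signal were the basis for scoring. That signal came from GST-tagged yeast transcription factors applied at about 100-200 nM to double-stranded universal all-10-mer Agilent arrays on fresh or once-stripped slides. Each ungapped eight-base word, pooled with its reverse complement, received an E-score from the Universal PBM Analysis Suite.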", "values": [
      {"sequence": "GGGTCACA", "PBM E-score": 0.00589},
      {"sequence": "CGGTACGC", "PBM E-score": -0.151},
      {"sequence": "GAACCACA", "PBM E-score": 0.171},
      {"sequence": "CGCCATAA", "PBM E-score": -0.0011},
      {"sequence": "GAGAACAC", "PBM E-score": -0.0624},
      {"sequence": "TCGAAGCA", "PBM E-score": -0.117},
      {"sequence": "ACCCAGAT", "PBM E-score": -0.0932},
      {"sequence": "ATAAGTCC", "PBM E-score": 0.161},
      {"sequence": "CGGACGTC", "PBM E-score": 0.0216},
      {"sequence": "GACGTGAC", "PBM E-score": 0.188},
      {"sequence": "AGAATGTC", "PBM E-score": 0.0445},
      {"sequence": "TACGGACA", "PBM E-score": 0.0661},
      {"sequence": "ATCTTGTA", "PBM E-score": 0.0633},
      {"sequence": "ACACAATA", "PBM E-score": -0.0198},
      {"sequence": "TACACGCA", "PBM E-score": -0.129},
      {"sequence": "TAAGCCAA", "PBM E-score": -0.0148},
      {"sequence": "GACAGTGA", "PBM E-score": 0.132},
      {"sequence": "GAAAGCGA", "PBM E-score": -0.169},
      {"sequence": "AACTGCTA", "PBM E-score": 0.0473},
      {"sequence": "AACTAAGA", "PBM E-score": 0.137},
      {"sequence": "GATCTAGA", "PBM E-score": 0.0153},
      {"sequence": "ACATCCAT", "PBM E-score": -0.125},
      {"sequence": "AGCCTCTG", "PBM E-score": -0.205},
      {"sequence": "CAGGTGTC", "PBM E-score": 0.0065},
      {"sequence": "CCCAAAGA", "PBM E-score": -0.0474},
      {"sequence": "CGCCAAAC", "PBM E-score": -0.0559},
      {"sequence": "GGAGGGAA", "PBM E-score": -0.248},
      {"sequence": "GAACCTAA", "PBM E-score": -0.112},
      {"sequence": "CAGACAGG", "PBM E-score": -0.206},
      {"sequence": "AGATTGGA", "PBM E-score": -0.101},
      {"sequence": "CCTATACC", "PBM E-score": -0.227},
      {"sequence": "GGCGATCA", "PBM E-score": -0.108},
      {"sequence": "GAAGATGC", "PBM E-score": -0.319},
      {"sequence": "AATACAAA", "PBM E-score": 0.173},
      {"sequence": "ACGCGGTG", "PBM E-score": -0.199},
      {"sequence": "AAGGGCTG", "PBM E-score": -0.261},
      {"sequence": "CCGATATC", "PBM E-score": -0.075},
      {"sequence": "AATTGCCA", "PBM E-score": -0.111},
      {"sequence": "ATTGTCCG", "PBM E-score": 0.0266},
      {"sequence": "CCATAGCG", "PBM E-score": -0.0764},
      {"sequence": "TATCACCA", "PBM E-score": -0.0277},
      {"sequence": "AGCCAGCT", "PBM E-score": 0.0903},
      {"sequence": "AACACCTC", "PBM E-score": -0.065},
      {"sequence": "CGCATCGA", "PBM E-score": -0.133},
      {"sequence": "CTCGATGA", "PBM E-score": 0.137},
      {"sequence": "GGTACAAA", "PBM E-score": 0.1},
      {"sequence": "TAAAGCAA", "PBM E-score": 0.036},
      {"sequence": "CATTGCAA", "PBM E-score": -0.00565},
      {"sequence": "CTCGCCCA", "PBM E-score": 0.0251},
      {"sequence": "AGGACGAA", "PBM E-score": -0.0374},
      {"sequence": "AATGCCGT", "PBM E-score": -0.0266},
      {"sequence": "CGCAGTAG", "PBM E-score": -0.0713},
      {"sequence": "AATCACTA", "PBM E-score": 0.373},
      {"sequence": "ATTGGGGA", "PBM E-score": -0.116},
      {"sequence": "CATGAGCC", "PBM E-score": 0.247},
      {"sequence": "TGCAGCCA", "PBM E-score": -0.133},
      {"sequence": "AGCCTTCA", "PBM E-score": 0.0305},
      {"sequence": "CTAGTGAC", "PBM E-score": 0.263},
      {"sequence": "GCTTAACC", "PBM E-score": -0.0107},
      {"sequence": "AACCACTA", "PBM E-score": -0.0904},
      {"sequence": "GAGTAAGA", "PBM E-score": 0.186},
      {"sequence": "GGACGGGA", "PBM E-score": -0.138},
      {"sequence": "CGCTTTTA", "PBM E-score": 0.0919},
      {"sequence": "GTTCCTGA", "PBM E-score": -0.164},
      {"sequence": "AGTGACGC", "PBM E-score": -0.182},
      {"sequence": "AATATGAT", "PBM E-score": 0.246},
      {"sequence": "ATCACGGC", "PBM E-score": 0.092},
      {"sequence": "AGTGCAGC", "PBM E-score": -0.0932},
      {"sequence": "ACGATCGA", "PBM E-score": -0.0606},
      {"sequence": "CTAGAGGC", "PBM E-score": -0.0949},
      {"sequence": "CCGTCTCG", "PBM E-score": -0.206},
      {"sequence": "GTGCCGGA", "PBM E-score": -0.148},
      {"sequence": "CTGTCGGA", "PBM E-score": 0.0886},
      {"sequence": "GGCATAAC", "PBM E-score": -0.0939},
      {"sequence": "AACATGGG", "PBM E-score": 0.00261},
      {"sequence": "AAATGCAT", "PBM E-score": -0.0564},
      {"sequence": "ATGACAGG", "PBM E-score": -0.124},
      {"sequence": "AGATGCTA", "PBM E-score": -0.0713},
      {"sequence": "ACACGTGG", "PBM E-score": 0.0631},
      {"sequence": "ACAAGTCA", "PBM E-score": 0.374},
      {"sequence": "AGCAAGGC", "PBM E-score": -0.0972},
      {"sequence": "CCAATCGC", "PBM E-score": -0.0891},
      {"sequence": "ACCCTTGG", "PBM E-score": -0.133},
      {"sequence": "TCCAGCCA", "PBM E-score": -0.198},
      {"sequence": "TACAGTGA", "PBM E-score": 0.211},
      {"sequence": "TGCAGGCA", "PBM E-score": -0.165},
      {"sequence": "TATTCCGA", "PBM E-score": 0.0815},
      {"sequence": "AACTTGCT", "PBM E-score": -0.108},
      {"sequence": "CGCATAAC", "PBM E-score": -0.173},
      {"sequence": "ATTACGTC", "PBM E-score": 0.101},
      {"sequence": "TACTGCAA", "PBM E-score": -0.0632},
      {"sequence": "ACCTGGAG", "PBM E-score": 0.0449},
      {"sequence": "CAGGCCTC", "PBM E-score": -0.2},
      {"sequence": "GCTCGACA", "PBM E-score": -0.0118},
      {"sequence": "CGAAACAC", "PBM E-score": -0.028},
      {"sequence": "GACTTCCC", "PBM E-score": 0.32},
      {"sequence": "AACAAGGC", "PBM E-score": -0.111},
      {"sequence": "CACGATTC", "PBM E-score": 0.148},
      {"sequence": "CACGCGGC", "PBM E-score": -0.0642},
      {"sequence": "CTAGAAAA", "PBM E-score": 0.102},
      {"sequence": "CTCTGTTC", "PBM E-score": -0.0566},
      {"sequence": "CAATACTC", "PBM E-score": 0.147},
      {"sequence": "ATGAGCTC", "PBM E-score": 0.114},
      {"sequence": "CGATGGGC", "PBM E-score": 0.12},
      {"sequence": "ACTGTCGC", "PBM E-score": 0.111},
      {"sequence": "AAGGACAC", "PBM E-score": -0.0571},
      {"sequence": "GCTAAAGA", "PBM E-score": 0.16},
      {"sequence": "TCTGATAA", "PBM E-score": 0.0493},
      {"sequence": "TATCCAAA", "PBM E-score": 0.159},
      {"sequence": "GGTAAAAA", "PBM E-score": -0.0628},
      {"sequence": "GGCGGGAC", "PBM E-score": -0.122},
      {"sequence": "ACCTCGTC", "PBM E-score": -0.0535},
      {"sequence": "CGCGCCAG", "PBM E-score": -0.0825},
      {"sequence": "GTCCTTTA", "PBM E-score": 0.0876},
      {"sequence": "GGCTTCGA", "PBM E-score": -0.176},
      {"sequence": "CACAAAGA", "PBM E-score": 0.0315},
      {"sequence": "ACGTAGAT", "PBM E-score": -0.211},
      {"sequence": "AGGACCAC", "PBM E-score": -0.0615},
      {"sequence": "GATTCCAC", "PBM E-score": 0.183},
      {"sequence": "GGTGGAAA", "PBM E-score": -0.269},
      {"sequence": "GTGCCTCA", "PBM E-score": -0.25},
      {"sequence": "GGATAATA", "PBM E-score": -0.102},
      {"sequence": "CTAACATA", "PBM E-score": 0.161},
      {"sequence": "GTCGCAAC", "PBM E-score": 0.109},
      {"sequence": "AAGGTGAC", "PBM E-score": 0.295},
      {"sequence": "AAAGATTC", "PBM E-score": 0.291},
      {"sequence": "GGCACGGA", "PBM E-score": -0.127},
      {"sequence": "CTCTTGTA", "PBM E-score": 0.085},
      {"sequence": "CCTCTCTA", "PBM E-score": -0.15}
    ]}
  ]
}
